Source: the supplement of paper PMC12217912
The other results are listed elsewhere or left out. Sequences were assembled here from the parent chain. Inactive controls read about 0.05.

B1: TEV protease; numbered along this chain (parent)
chain: MGESLFKGPRDYNPISSSICHLTNESDGHTTSLYGIGFGPFIITNKHLFRRNNGTLVVQSLHGVFKVKDTTTLQQHLVDGRDMIIIRMPKDFPPFPQKLKFREPQREERICLVTTNFQTKSMSSMVSDTSCTFPSGDGIFWKHWIQTKDGQCGSPLVSTRDGFIVGIHSASNFTNTNNYFTSVPKNFMELLTNQEAQQWVSGWRLNADSVLWGGHKVFMVKPEEPFQPVKEATQL

Variants of: B1
Assay: raw area under fraction-flipped curve 0-4 h after induction (AUC4h, not background-subtracted), DNA-recorder readout of cleavage of the substrate (dimensionless); higher = more cleavage of the substrate by the protease variant
Details: temperature: 34 °C; time window: 0-4 h after rhamnose induction
Experimental: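 In vivo DNA recorder in E. coli TOP10(DE3) ΔrhaA at 34 °C. Each TEVp single-site mutant (parent TEVp 0) is paired with a single-site variant of the 7-mer TEVs (canonical ENLYFQ|S). The substrate sits between flexible linkers in a Bxb1-sfGFP-TEVs-SsrA fusion, so cleavage stabilises Bxb1 and speeds flipping of a recombination array, read by NGS. The value is the raw area under the fraction-flipped curve over 0-4 h after rhamnose induction (AUC4h), with ≥20 reads per time point. It is not background-subtracted; inactive controls average about 0.047.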
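Note: Bxb1 expression induced with 0.2% (w/v) L-rhamnose at OD600 near 0.5, cultures sampled hourly, flipped fraction per protease–substrate barcode pair counted by paired-end Illumina sequencing.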

Variant	area with substrate ENAYFQS	area with substrate ENCYFQS	area with substrate ENDYFQS	area with substrate ENEYFQS	area with substrate ENGYFQS	area with substrate ENHYFQS	area with substrate ENNYFQS	area with substrate ENPYFQS	area with substrate ENQYFQS	area with substrate ENRYFQS	area with substrate ENSYFQS	area with substrate ENTYFQS	area with substrate ENVYFQS	area with substrate ENWYFQS	area with substrate ENYYFQS	area with substrate ENFYFQS	area with substrate ENIYFQS	area with substrate ENMYFQS	area with substrate ENKYFQS
I36T	0.0546	0.0723	0.0614	0.064	0.0621	0.044	0.0552	0.0512	0.0704	0.0569	0.0598	0.0473	0.067	0.0231	0.0648	–	–	–	–
I36W	0.0495	0.0454	0.0558	–	0.0517	0.0548	0.0691	0.044	0.057	0.0573	0.0523	0.0524	0.0554	0.0255	0.0476	0.0366	0.0531	0.0467	–
I36Y	0.0505	0.0512	0.0519	0.0494	–	0.0596	–	0.0268	0.0415	0.0431	0.0447	0.0437	–	–	–	0.0497	0.053	–	0.0468
G37I	0.0755	0.0569	0.0551	0.053	0.0571	0.0559	0.0538	0.0564	0.0647	0.0566	0.0504	0.073	–	–	–	0.0507	0.0997	0.0663	–
G37T	0.057	0.0651	0.0381	0.0577	0.0659	0.0535	0.0607	–	0.0501	0.0565	–	0.0584	0.0466	0.0449	0.0588	–	0.102	0.0619	–
G37W	0.0802	0.0607	0.0529	0.0589	0.0936	–	0.0616	0.0511	0.0532	–	0.0494	0.0517	0.0581	–	–	0.0562	0.0847	0.0688	0.0506
F38C	0.0632	–	0.0651	0.0482	0.0542	–	–	–	0.0547	0.0546	0.0573	0.0589	0.0504	–	0.0308	0.054	–	0.0754	0.0699
F38I	0.0663	–	0.0452	0.0539	–	–	0.0591	–	–	0.0578	0.0622	0.0594	0.0426	–	–	–	–	–	0.058
F38W	0.069	0.0612	0.0583	0.0683	0.0558	0	0.057	0.0261	0.0616	0.0682	0.0535	0.0551	0.0869	–	0.0572	–	0.109	0.0604	0.0541
F38Y	0.0533	–	0.0628	0.0588	0.0585	–	0.0655	–	0.0586	0.0418	0.0651	–	0.0799	–	0.0732	0.054	–	–	0.0644
G39E	0.0472	0.0475	0.0606	–	0.0419	0.0472	–	0.0519	0.0431	0.0375	0.0498	0.0477	0.0337	–	0.0396	0.0283	–	0.0468	0.0442
G39I	0.0467	0.0446	0.0415	0.0455	0.0297	0.0443	0.0458	0.0343	0.0581	–	0.0436	–	0.0362	–	0.0427	0.0506	–	–	–
G39M	0.0401	0.0396	0.0445	0.0456	0.036	0.0296	0.0349	0.035	0.0388	0.0398	0.0411	0.0444	0.0415	–	0.0351	0.0426	0.0473	–	0.0436
G39R	0.0287	0.0383	0.0541	0.0483	0.0494	0.0454	0.0478	0.046	0.0503	0.0623	0.0531	0.0446	0.0206	0.0043	0.0394	0.0415	–	–	–
F41I	0.0655	0.0695	0.0553	0.0604	–	0.0383	0.0564	0.0599	0.0507	0.0497	0.0629	0.0554	0.0719	0.0581	–	0.0535	–	0.0792	0.0382
I42A	0.0527	–	0.0506	0.0425	0.0445	–	–	0.0586	0.0581	–	0.0496	0.0556	0.0679	0.0389	–	0.0317	0.0394	0.0188	0.0569
I42F	0.0567	–	–	–	0.0404	0.0385	–	–	0.0464	0.0498	0.0537	0.0472	–	–	–	0.0312	–	0.0439	0.0499
I42L	0.0562	0.056	0.054	0.0598	0.0744	0.064	0.0549	0.0683	0.0665	0.0433	–	0.0589	0.0558	0.0239	–	0.0659	–	–	–
I42R	0.0331	0.069	0.0459	0.0497	0.0484	0.0361	–	0.0473	0.0357	0.0391	0.0496	0.0351	0.0453	0.0262	0.0456	0.0405	0.0563	–	–
I43A	0.0547	0.0785	0.0618	0.0661	0.0555	0.0919	0.0623	0.036	0.0634	0.0486	0.0642	0.0493	0.0691	0.0535	0.0644	0.0569	–	0.06	0.0596
I43E	0.0428	0.0403	0.0553	0.043	–	0.0372	0.0473	0.06	0.0521	0.0481	0.0466	0.0256	0.0476	–	–	0.0474	–	–	0.0394
I43L	0.0619	0.0708	0.0563	–	0.0624	0.0563	0.0651	0.041	0.0609	0.0507	0.0728	–	0.0692	0.053	0.0573	0.0586	0.104	–	0.0619
I43N	0.0324	0.0488	0.0455	0.0471	0.0494	0.0434	0.0454	–	0.0478	0.0428	0.0549	0.0481	0.0502	–	0.0498	0.0466	0.0419	0.0562	0.0293
I43Q	0.0468	0.0461	0.043	0.052	0.0478	0.0647	0.0471	0.0471	0.051	0.0442	0.038	0.0524	0.0539	–	0.0361	0.039	0.049	0.0414	0.0453
